Results from the supplement of paper PMC4967469.
Lines with a small IC50 respond at low doses; fits outside the tested doses are given as limits. AUC sums up the same curve from the lowest dose to the 256-fold higher top dose; values near 1 show little effect. For part of these data: The top dose, if marked as inferred, comes from the curve model; the source does not state it.

Tests used:
Test in all cases: Viability of human cancer cell lines after 72 h of drug (GDSC screen)
Trametinib = compound: CC(=O)Nc1cccc(-n2c(=O)n(C3CC3)c(=O)c3c(Nc4ccc(I)cc4F)n(C)c(=O)c(C)c32)c1 [Trametinib]; conditions: top dose 1 µM
Description: (§1)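 Human cancer cell lines in 384-well plates, medium with 10% serum, drug for 72 h over a 256-fold dose range (nine 2-fold or five 4-fold steps up to the top dose). Adherent lines were fixed and stained with the nucleic acid dye Syto60, suspension lines read with resazurin; signal relative to control wells, capped at 0 and 100%. One two-parameter sigmoid per drug and line, fitted in a mixed model over all curves with the slope shared within a line.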

HG-6-64-1 = compound: CCN1CCN(Cc2ccc(NC(=O)c3ccc(C)c(/C=C/c4cnc5[nH]ccc5c4OC)c3)cc2C(F)(F)F)CC1 [HG-6-64-1]; conditions: top dose 5.12 µM; top dose inferred
Description: as §1

I-BET-762 = compound: CCNC(=O)C[C@@H]1N=C(c2ccc(Cl)cc2)c2cc(OC)ccc2-n2c(C)nnc21 [I-BET-762]; conditions: top dose 20 µM; top dose inferred
Description: as §1

PF-4708671 = compound: CCc1cncnc1N1CCN(Cc2nc3ccc(C(F)(F)F)cc3[nH]2)CC1 [PF-4708671]; conditions: top dose 10 µM; top dose inferred
Description: as §1

AV-951 = compound: COc1cc2nccc(Oc3ccc(NC(=O)Nc4cc(C)on4)c(Cl)c3)c2cc1OC [AV-951]; conditions: top dose 0.128 µM; top dose inferred
Description: as §1

KIN001-244 = compound: O=C(NC(COc1ccc2[nH]c(=O)[nH]c2c1)c1ccccc1)c1cccn(Cc2ccc(F)c(F)c2)c1=O [KIN001-244]; conditions: top dose 20 µM; top dose inferred
Description: as §1

Cell Line | AUC (Trametinib) | IC50 (Trametinib) | AUC (HG-6-64-1) | IC50 (HG-6-64-1) | AUC (I-BET-762) | IC50 (I-BET-762) | AUC (PF-4708671) | IC50 (PF-4708671) | AUC (AV-951) | IC50 (AV-951) | AUC (KIN001-244) | IC50 (KIN001-244)
HCC1419 (breast, adherent) | 0.959 | > 1 µM | 0.942 | > 5.12 µM | 0.94 | > 20 µM | 0.824 | 9.67 µM | 0.98 | > 0.128 µM | 0.931 | > 20 µM
HCC1428 (breast, adherent) | 0.98 | > 1 µM | 0.974 | > 5.12 µM | 0.908 | > 20 µM | 0.969 | > 10 µM | 0.986 | > 0.128 µM | 0.947 | > 20 µM
HCC1569 (breast, adherent) | 0.769 | 0.507 µM | 0.739 | 1.99 µM | 0.887 | > 20 µM | 0.83 | 9.36 µM | 0.975 | > 0.128 µM | 0.907 | > 20 µM
HCC1806 (breast, adherent) | 0.923 | > 1 µM | 0.755 | 1.61 µM | 0.967 | > 20 µM | 0.989 | > 10 µM | 0.982 | > 0.128 µM | 0.928 | > 20 µM
HCC1937 (breast, adherent) | 0.857 | > 1 µM | 0.955 | > 5.12 µM | 0.913 | > 20 µM | 0.972 | > 10 µM | 0.981 | > 0.128 µM | 0.906 | > 20 µM
HCC1954 (breast, adherent) | 0.642 | 0.165 µM | 0.974 | > 5.12 µM | 0.984 | > 20 µM | 0.937 | > 10 µM | 0.981 | > 0.128 µM | 0.983 | > 20 µM
HCC-15 (lung squamous cell carcinoma, adherent) | 0.096 | < 0.00391 µM | 0.882 | > 5.12 µM | 0.975 | > 20 µM | 0.933 | > 10 µM | 0.975 | > 0.128 µM | 0.942 | > 20 µM
HCC-44 (lung adenocarcinoma, adherent) | 0.245 | 0.0117 µM | 0.69 | 1.08 µM | 0.785 | 8.33 µM | 0.896 | > 10 µM | 0.986 | > 0.128 µM | 0.843 | 13.7 µM
HCC-56 (large intestine, adherent) | 0.329 | 0.0206 µM | 0.858 | 4.37 µM | 0.89 | > 20 µM | 0.982 | > 10 µM | 0.987 | > 0.128 µM | 0.943 | > 20 µM
HCC-827 (lung adenocarcinoma, adherent) | 0.883 | > 1 µM | 0.706 | 1.34 µM | 0.983 | > 20 µM | 0.981 | > 10 µM | 0.983 | > 0.128 µM | 0.94 | > 20 µM
HCT-15 (large intestine, adherent) | 0.947 | > 1 µM | 0.629 | 0.744 µM | 0.952 | > 20 µM | 0.966 | > 10 µM | 0.98 | > 0.128 µM | 0.915 | > 20 µM
